# Measurements: patent US20250195677A1 (CEPHALON, published 2025)
# Substitutions are numbered along the chain they refer to. Names may count otherwise.
# B1: H7-767 (other)
# heavy: EVQLLESGGGLVQPGGSLRLSCAASGFTFKSYAMHWVRQAPGKGLEWVSAIVYSGGSTYYADSVKGRFTISRDNSKNTLYLQMNSLRAEDTAVYYCAKYDRASYFYDAMDVWGQGTTVTVSS[sequence of human IgG1 constant region with L235A G237A (EU numbers) omitted]APASSSTKKTQLQLEHLLLALQMILNGINNYKNPKLTEMLTFKFYMPKKATELKHLQCLEEELKPLEEVLNLAQSKNFHLRPRDLISNINVIVLELKGSETTFMCEYADETATIVEFLNRWITFAQSIISTLT
# light: EIVLTQSPGTLSLSPGERATLSCRASQSISSSFLAWYQQKPGQAPRLLIYDASDRATGIPDRFSGSGSGTDFTLTISRLEPEDFAVYYCQQYYDWPPLSFGGGTKVEIKRTVAAPSVFIFPPSDEQLKSGTASVVCLLNNFYPREAKVQWKVDNALQSGNSQESVTEQDSKDSTYSLSSTLTLSKADYEKHKVYACEVTHQGLSSPVTKSFNRGEC
# notes: anti-hPD-1 antibody with attenuated hIL-2 directly fused to the heavy chain C-terminus; also called H7-632-hIgG1-LAGA-df-hIL-2 (T3A/D20A/R38E/C125A)
# B2: 2H7-hIgG4-df-hIL-2 (D20A/R38E) (other)
# heavy: EVQLLESGGGLVQPGGSLRLSCAASGFTFKDYCMTWVRQAPGKGLEWVSAIVYSGGSTYYADSVKGRFTISRDNSKNTLYLQMNNLRAEDTAVYYCAKYTRASYFYDAMDVWGQGTTVTVSSASTKGPSVFPLAPCSRSTSESTAALGCLVKDYFPEPVTVSWNSGALTSGVHTFPAVLQSSGLYSLSSVVTVPSSSLGTKTYTCNVDHKPSNTKVDKRV[sequence of about 350 residues with a human IgG4 Fc omitted]
# light: B1 light with S30G, S31K, D54T, T57A, G58D, D61A, R78S
# B3: 1H3-hIgG4-df-hIL-2 (D20A/R38E) (other)
# heavy: EVQLVESGGGLVQPGRSLKLSCAVSGFTFSDYAMAWVRQAPKKGLEWVATISYDGSRTYYRDSVKGRFTISRDNAKITLYLQMDSLRSEDTATYYCARHGSGYFDYWGQGVMVTVSSASTKGPSVFPLAPCSRSTSESTAALGCLVKDYFPEPVTVSWNSGALTSGVHTFPAVLQSSGLYSLSSVVTVPSSSLGTKTYTCNVDHKPSNTKVDKRV[sequence of about 350 residues with a human IgG4 Fc omitted]
# light: DTVLTQSPALAVSPGERVTISCRASESVRTGVHWYQQKPGQQPKLLIYGASNLESGVPARFSGSGSGTDFTLTIDPVEADDTATYFCQQSWNDPFTFGSGTKLEIKRTVAAPSVFIFPPSDEQLKSGTASVVCLLNNFYPREAKVQWKVDNALQSGNSQESVTEQDSKDSTYSLSSTLTLSKADYEKHKVYACEVTHQGLSSPVTKSFNRGEC
# notes: negative control fusion protein; also called isotype control anti-DNase 1H3-hIgG4-df-hIL-2 (D20A/R38E)
# B4: C51E6-5-hIgG4-L6-hIL-2 (D20A/R38E) (other)
# heavy: QVQLVQSGSELKKPGASVKVSCKASGYSLYGTSMHWVRQAPGQGLEWMGYISPFTGRATYAQGFTGRFVFSLDTSVSTAYLQISSLKAEDTAVYYCARDYDYRYYYAMDYWGQGTTVTVSSASTKGPSVFPLAPCSRSTSESTAALGCLVKDYFPEPVTVSWNSGALTSGVHTFPAVLQSSGLYSLSSVVTVPSSSLGTKTYTCNVDHKPSNTKVDKRV[sequence of about 350 residues with a human IgG4 Fc omitted]
# light: EIVLTQSPDFQSVTPKEKVTITCTASESVPPQFLHWYQQKPDQSPKLLIYASRERASGVPSRFSGSGSGTDFTLTINSLEAEDAATYYCHQFHRSPLTFGGGTKLEIKRTVAAPSVFIFPPSDEQLKSGTASVVCLLNNFYPREAKVQWKVDNALQSGNSQESVTEQDSKDSTYSLSSTLTLSKADYEKHKVYACEVTHQGLSSPVTKSFNRGEC
# Key:
# [1] = molecular target: T1, PD1; assay: SPR, H7-767 immobilised on a CM5 chip, recombinant human PD-1 as analyte (capture step)
# T1 construct: The legend says only recombinant human PD-1
# T1 sequence (chain, as listed by the source limits assumed): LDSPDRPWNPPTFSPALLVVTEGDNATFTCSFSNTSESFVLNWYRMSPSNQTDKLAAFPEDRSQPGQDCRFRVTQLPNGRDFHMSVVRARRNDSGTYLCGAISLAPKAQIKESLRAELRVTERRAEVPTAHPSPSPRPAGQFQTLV
# [2] = molecular target: T2, human PD-1 (amino acids 1-185) stably expressed on Jurkat cells (human, UniProt Q15116 in part); assay: flow cytometry, Jurkat+hPD-1 cells, APC anti-human IgG Fc, gMFI; cells first saturated with 10 µM anti-hPD-1 #2-mIgG2b-N297A
# T2 construct: extracellular domain and a portion of the transmembrane domain, on cells; also called hPD-1; Jurkat+hPD-1 cell line
# T2 sequence (Q15116 21-185 limits assumed, form in doubt): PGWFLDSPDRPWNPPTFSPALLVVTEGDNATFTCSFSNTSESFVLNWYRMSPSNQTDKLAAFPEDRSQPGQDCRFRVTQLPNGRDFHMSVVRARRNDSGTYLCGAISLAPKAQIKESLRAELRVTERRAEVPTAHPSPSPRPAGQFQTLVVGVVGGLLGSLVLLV
# [3] = molecular target: T2, human PD-1 (amino acids 1-185) stably …; assay: flow cytometry, Jurkat+hPD-1 cells, APC anti-human IgG Fc, gMFI; no competitor
# [4] = molecular target: T3, cynomolgus PD-1 (1-185), HA-tagged, transiently expressed on HEK-293T cells (cynomolgus, UniProt B0LAJ3 25-185); assay: flow cytometry, HEK-293T cells transiently expressing HA-tagged cynomolgus PD-1, gated on HA-positive cells, APC anti-human IgG Fc, gMFI
# T3 construct: also called cyno PD-1; not shown: HA tag and its junction
binder,measurement,setting,value
B1,binding result,[1],binds
B2,EC50 (read off the curve),[2],~0.7 nM
same,EC50 (read off the curve),[3],~0.2 nM
B3,binding result,[4],no binding (tested: about 560 nM)
B4,EC50 (read off the curve),[4],~6 nM
